The source gives no read counts; variants with many changes may rest on few reads.

The chains are these.
B1: OR4K15 (parent)
chain: GUUAACGGUCAUAGGCCAUGGAAACUAGGAGCACCAUUUCGCUGCCAGUGAAGAAAUGAACAAAGAAAAUCUGGGCCAGGCAGGCAUCAAAAGAAAUAGUCUUGCGCUCAACCAGAAAGUCUGUAAUCAUUUUAAGGGUA

Variants of B1 are the subject of this data set. Kind of data set: self-cleavage, relative activity (ratio to wild type); higher = more cleavage; in vitro, sequencing; the parent is a self-cleaving ribozyme.
As to U43A A98C U100C, the self-cleavage was found to be 1.46.
Regarding G44A A62G A86G U108A, the self-cleavage was 0.01.
With U43C A56G A64G G93A the figure was 1.45; with U39C A125G U139C, 0.65; with U43A A62C C85U A114G A117C, 0.07.
With C40A A51G A52U the figure was 1.02; with U43A U120C U130C U132C, 0.24.
With U39C C81U U133C the figure was 0.42; with U43A A51G A117G, 1.21.
For the variant U43C U72C G74U U120A, the self-cleavage is 0.09.
U43A U72C U131C: the self-cleavage turned out to be 0.08.
Consider U39C U87C A91U A96G, for which the self-cleavage came to 1.76.
Under U39C U103C C112G stands 0.01.
With U43C U57C U102A the figure was 0.39; with U43C A62U A126G, 1.77.
As for U39C A55G C121U, the self-cleavage stood at 0.97.
Take U43A A51G A91G: the self-cleavage came to 1.56.
Under U43A A55G A68G U70C stands 0.44; under U39C A63U U108C A117G A118C U122C, 0.01.
With U43C U120C A129G the figure was 0.46; with U39C A91G A111G, 0.03; with U39C U102C A140G, 2.77.
Under G41A A118U U124C stands 0.23.
Regarding U39C A92G A129G U132C, the self-cleavage is 0.88.
Under U39C A56G C109U U133C stands 0.48.
Turning to U43C A59G U139G, the self-cleavage was 1.38.
With U39C A117G A135U the figure was 2.04.
Under U39C A63G A92G A134G stands 0.66; under U39C U103C U124C, 0.35.
For the variant U39C A78G A125U, the self-cleavage came to 0.38.
Under U43C A116G U124C U132C A140U stands 0.29; under U39C A68U A95G U132C G138A, 1.95.
With U39C A47U A64G A129C, the self-cleavage is 0.7.
With U39C A66G A134G, the self-cleavage stood at 0.72.
On to U43G A51G A140G, for which the self-cleavage came out at 2.34.
Under G44U U70C A96G stands 1.15; under U43C U97C A117G, 1.33.
With U43A A52G U87C A129G the figure was 0.78; with G41A A55G A96G U120C U127C, 0.55.
With U43C U131C A135G the figure was 1.34.
Regarding U43A A56G A67G A114U, the self-cleavage came to 0.09.
With U43C A62G U70C A92G A95U A110G the figure was 0.1; with U43C A54G A114G U133C, 0.89; with U43C A95U A110G A116G, 0.03.
With C40A A64G U103C the figure was 0.54; with U39C U57C A78C U130C, 0.2.
On to U39C A82G U127A A129G G138A, for which the self-cleavage amounted to 0.31.
For U43A C81U G83U G84A, the self-cleavage was 0.08.
Under U39C A62U A91G U102C stands 2.14; under G41A U97A C128U, 1.27.
As to U39C A60U A126G C128A U130C, the self-cleavage was 1.
With G44A A55G A60U A64G the figure was 1.08.
With U43G A54G U122A the figure was 1.43; with U43C A54G U108A, 0.03.
Under U43C G53A A67G U70A A90G C101U stands 0.03; under C45U A63G U87C, 1.71.
As for U43C A62G A86U A92U, the self-cleavage was determined as 1.55.
Under C40U A47G U70C G79A stands 0.19; under U43C A91G A96G, 0.76.
Consider G41A A52U G79A, for which the self-cleavage was found to be 0.11.
For the variant U43A A111G A129G, the self-cleavage stood at 0.04.
With G41U A47U A51U A54G U130C, the self-cleavage came to 0.41.
For the variant U43A U87C A116C U130C, the self-cleavage came to 0.02.
With U43A A54G A82U U87A U124A U131C the figure was 0.04; with G44A A96G U122C, 1.68.
Consider C40U U70C A91G U97C, for which the self-cleavage worked out at 0.53.
Under U43C A92G A98G stands 0.34.
With G41A A52G A62G A91G A117G A129U the figure was 0.65; with U39C A52G U57C U72A, 0.19; with U43C A67G U130A, 1.94.
Under U39C U97C A140C stands 1.02; under U43C A52U A98G U127C U133C, 0.23.
Regarding U39C A64G U102C, the self-cleavage turned out to be 2.14.
Turning to U39C A51U A86G, the self-cleavage turned out to be 2.28.
In the case of U39C A63G U103C A110G, the self-cleavage was found to be 0.21.
With C45U A51G A69U A89C the figure was 1.85.
As for U43C A68G U97C A98C, the self-cleavage is 0.73.
For the variant U39C A78U A92G A118G, the self-cleavage was determined as 0.08.
Under U43C A63U A82G A114G A126G stands 0.25; under U43C G44A U131A, 1.1; under U43C A51G A92G A134G G137A, 2.4.
On to U43C A59G A126G, for which the self-cleavage came out at 0.88.
Turning to C45G A114U U132A, the self-cleavage was determined as 0.06.
